The campaign covered roughly 150,000 compounds. About 540 (0.36%) showed an effect of 50% or more. Some of the results follow.
The compounds below were run on Plasmodium falciparum (assay: Primary screen in NF54 nanoGlo assay, in single point, at 2uM, 72h; a lower Z score goes with more inhibition). Conditions: timepoint 72 hour.
Format: functional, Erythrocyte

Row | SMILES | % Inhibition [%] | Z score
1 | CN(C(=O)C[C@@H]1C[C@H]1c1ccccc1)c1ccccc1S(C)(=O)=O | -1 | 0.15
2 | C[C@](O)(CNC(=O)c1cccnc1)C1CCCCC1 | -6 | 0.64
3 | CC1CN(CC(=O)Nc2nc3ccccc3s2)CC(C)O1 (stereo not drawn) | -4 | 0.77
4 | Cc1nc2oc(-c3ccccc3)nc2cc1NC(=O)Nc1cccs1 | -20 | 2.59
5 | Cc1nc(CCN[C@H](c2ccc(Br)cc2)c2ccco2)cs1 | 0 | -0.03
6 | O=C(NC[C@@H]1C[C@H]1c1cccnc1)c1cccnc1OCC(F)F | 1 | -0.13
7 | CCN(CC)C(=O)NC[C@H]1CN(CC(C)C)C(=O)CO1 | 4 | -0.54
8 | O=C(NC1CCCC1O)C1CC2CCCCC2N1c1ncccn1 (stereo not drawn) | -10 | 0.99
9 | CC(C)c1nc(CN2C[C@@H](C)O[C@@H](C)C2)co1 | 4 | -0.5
10 | O=C(C[C@@H]1CCCC[C@H]1O)N1CC(CO)C1 | 3 | -0.43
11 | O=C1CCc2c(OC34CCCN(CC3)C4)cccc21 (stereo not drawn) | -5 | 0.73
12 | O=C(CN[C@H](c1ccccc1)c1cccs1)Nc1ccc(N2CCCCC2)cc1 | 4 | -0.47
13 | Cc1cc(NC(=O)N2CCN(Cc3ccc4nccnc4c3)CC2)ccc1Br | -24 | 2.23
14 | CC(=O)NC[C@H]1CCCN(C(=O)c2cc(C)ccc2-n2cnnc2)C1 | -2 | 0.32
15 | Cc1nc([C@@H]2CCCN2c2ncc(Cl)cc2F)no1 | -5 | 0.62
16 | CC(C)(C)c1n[nH]c([C@@H]2CN(Cc3nnnn3C3CC3)CCO2)n1 | -20 | 2.05
17 | O=C1N[C@H](CO)C(=O)N2CCN(S(=O)(=O)c3ccc4ccccc4c3)C[C@H]12 | -6 | 0.72
18 | CCCn1ncc(C(=O)N2C[C@@H](F)C[C@H]2CNC(=O)c2cc(C)oc2C)c1C | -5 | 0.64
19 | COc1ccccc1CNCCc1nc(C)c(C)s1 | -15 | 2.22
20 | COCCNC(=O)C(=O)NC[C@H](O)c1ccc(C)o1 | -20 | 3.43
21 | CCC(C)C(O)CNC(=O)c1ccc(C#N)cn1 (stereo not drawn) | -11 | 1.31
22 | O=C(C(c1ccccc1)c1ccccc1)N1CC(c2ccccc2)C1 | -3 | 0.4
23 | Cc1cnn(CCC(=O)N[C@H]2COCC[C@@H]2OCc2ccccn2)c1 | -3 | 0.56
24 | CCc1ccc2ncn(C3(C)CCC3)c(=O)c2c1 | -8 | 0.91
